From PubChem BioAssay AID889 (National Center for Advancing Translational Sciences (NCATS), 2007)
The campaign covered roughly 75,000 compounds. About 15 (0.02%) were called active. Inconclusive results, whose numbers are uncertain, are shown with a selection of clear calls. Calls follow the shape of the dose curve; as a rule, active = well fitted inhibition curve with a large enough effect in the main read-out, with a control signal flat (not every such curve was filed as active); inconclusive = small, poorly fitted or top-dose-only effect, or a change in a side signal; inactive = flat fitted curve, though single readings scatter. Where the call is inconclusive, the potency comes from a doubtful curve fit. A note “side channel” means that the fit belongs to a control or component signal, not to the main read-out.

Each compound was assayed against Caspase-7 (Homo sapiens) (UniProt P55210) (assay: qHTS Assay for Allosteric/Competitive Inhibitors of Caspase-7). Settings: recombinant caspase-7, Ac-DEVD-AFC fluorescence rate; series mostly up to 57.5 µM.
Text: NIH Molecular Libraries Screening Centers Network [MLSCN]
NIH Chemical Genomics Center [NCGC]
PI Name: Dr. James Wells,
Dr. Enrique Perez-Paya, Dr.Janice Williams, Dr. Dennis Wolan, a person
The caspases (Cysteine Aspartyl Protease) comprise a related family of 14 dimeric proteases that are critical mediators of apoptosis (programmed cell death) and inflammation. The caspases represent an important class of drug targets for stroke, ischemia, cancer and inflammatory diseases. […] One goal of this project was to identify compounds that act as allosteric inhibitors via stabilizing the procaspase form of the enzyme. Previous work in Well's laboratory has shown that such allosteric inhibitors can be identified and these act by binding at the dimer interface of enzyme (Hardy, Lam et al., 2004).
The biochemical assay was configured using purified caspase 7 at a high enzyme concentration to promote formation of the homodimers and thus facilitate the identification of allosteric inhibitors. The overall goal was to identify reversible inhibitors with better drug-like properties than the currently available set of aspartyl-containing peptidomimetics that covalently bind the active site. Caspase 7 was assayed using the profluorescent substrate Ac-DEVD-AFC. After initiation of the assay with substrate the plates were rapidly read using an automated robotic system (Kalypsys, Inc.) to maintain consistent timing. A kinetic mode of detection was used where the initial rate was collected (estimated final product formation was ~10%). Compounds were screened as a concentration-titration series that ranged from 57 uM to 0.7 nM. Below is the protocol used for caspase 7.
NCGC Assay Protocol Summary:
Caspase 7 was prepared in buffer (50 mM HEPES pH 7.5, 50 mM KCl, 200 mM NaCl, 10 mM DTT, 0.1% CHAPS) at a concentration of 66.6 nM and 3 uL was dispensed to all wells using black solid Kalypsys 1536-well plates. 20 nL of DMSO containing compounds was added using a pin-tool (Kalypsys Inc.) to columns 5-48. Then 20 nL of DMSO solution from a control plate was added to columns 1-4. Controls were: Column 1, 16 point titration with each concentration in duplicate (1:1 dilutions in DMSO; final starting concentration was 57 uM) of the caspase 7 inhibitor Ac-DEVD-CHO (Alexis Biochemicals); Column 2, a 16 point titration with each concentration in duplicate of the free AFC fluorophore prepared in DMSO (Alexis Biochemicals), final starting was 40 uM; Column 3 neutral (DMSO only) control; Column 4: DMSO alone, to serve as a negative control (no substrate was added). Then 1 uL of 20 uM the substrate Ac-DEVD-AFC (Alexis Biochemicals) prepared in the same buffer was dispensed to all wells except columns 2 and 4 and the plates were immediately transferred (< 1 min) to the Viewlux. The plates were then exposed using 405 nm excitation/520 nm emission filters for 4 sec and read at 20 sec intervals for 3 min. Final enzyme concentration was 50 nM and the final substrate concentration was 5 uM.
Concentration-response curves were fitted to the data calculated from slope of the linear regression of fluorescent intensity versus time (the rate). The concentration-effect curves were then classified based on curve quality (r2), response magnitude and degree of measured activity. […] Inconclusive compounds had appreciable concentration-dependent effects on both the measured rate and the interpolated basal fluorescence intensity at the start of the reaction but where the basal fluorescent intensity was marginal (e.g. < 10-fold). Inconclusive compounds also encompass highly fluorescent compounds (>100-fold increases in fluorescent intensities values relative to controls) where artificial concentration-dependent decreases in the rate occurred at high compound concentrations due to fluorescent interferences.
Keywords: Caspase 7, proteases, profluorescent, MLSMR, MLSCN, NIH Roadmap, qHTS, NCGC
For activity change, negative = inhibition in this document: % of control where 0% means no effect.
Potency is read from the fitted curve at half-maximal effect; tags tell the direction and shape of the fitted curve or compound fluorescence and quenching.

Sequence of UniProt P55210 (P55210 whole entry, looked up): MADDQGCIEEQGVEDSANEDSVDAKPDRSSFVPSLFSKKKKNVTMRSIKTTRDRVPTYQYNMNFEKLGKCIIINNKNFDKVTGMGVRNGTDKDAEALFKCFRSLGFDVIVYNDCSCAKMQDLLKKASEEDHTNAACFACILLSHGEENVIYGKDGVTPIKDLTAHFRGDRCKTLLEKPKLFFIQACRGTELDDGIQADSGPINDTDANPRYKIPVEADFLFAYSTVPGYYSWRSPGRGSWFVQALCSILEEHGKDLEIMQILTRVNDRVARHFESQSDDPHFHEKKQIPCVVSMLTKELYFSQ

Row | Structure (SMILES) | Potency | activity change, negative = inhibition
1 | COC(=O)C(C)Oc1cc(C)cc2oc(=O)c3c(c12)CCC3 (stereo not given) | inactive | 
2 | O=[N+]([O-])c1ccc(O[C@H]2O[C@@H](CO)[C@@H](O)[C@@H](O)[C@@H]2F)c([N+](=O)[O-])c1 | inactive | 
3 | CN1CCc2cc3c(cc2[C@@H]1O)OCO3 | inconclusive: 3.98 µM [fluorescent, side channel, partial curve] | 
4 | NS(=O)(=O)C[C-]1C=C[CH]([Sb-]([Cl])([Cl])([Cl])([Cl])[Cl])C=C1.c1ccncc1 (stereo not given) |  | inactive: -3.36% [at 11.5 µM]
5 | O=C1NC(=O)C2(Cc3ccccc3N3CCCC32)C(=O)N1Cc1ccccc1 (stereo not given) | inconclusive: 31.6 µM [inhibitor, single point] | 
6 | CCC(C)NC(=O)c1c(N)n(CC2CCCO2)c2nc3ccccc3nc12 (stereo not given) | inconclusive: 12.6 µM [fluorescent, side channel, partial curve] | 
7 | C=CCSC1=N/C(=C\c2cc(OC)c3c(c2)OCO3)C(=O)S1 | inconclusive: 25.1 µM [inhibitor, partial curve] | 
8 | COc1ccc(CCNC(=O)c2c(N)n(CCN3CCOCC3)c3nc4ccccc4nc23)cc1 | inconclusive: 15.8 µM [fluorescent, side channel, partial curve] | 
9 | CN1C[C@@H](C(=O)N[C@@]2(C)O[C@]3(O)C4CCCN4C(=O)[C@@H](Cc4ccccc4)N3C2=O)C=C2c3cccc4[nH]cc(c34)C[C@@H]21 (stereo not given in full) | inconclusive: 15.8 µM [fluorescent, side channel, partial curve] | 
10 | CC(C)OCCCNC(=O)c1c(N)n(Cc2cccs2)c2nc3ccccc3nc12 | inconclusive: 7.94 µM [fluorescent, side channel, partial curve] | 
11 | Cc1ccc2[nH]c3c(c2c1)CN(C(=O)CN1CCSCC1)CC3 | inconclusive: 25.1 µM [fluorescent, partial curve] | 
12 | CCOC(=O)c1c(N)n(Cc2ccc(OC)cc2)c2nc3ccccc3nc12 | inconclusive: 12.6 µM [fluorescent, partial curve] | 
13 | COC(=O)[C@H]1C[C@@H]1[C@H](NP(=O)(c1ccccc1)c1ccccc1)c1ccccc1 | inactive | 
14 | C[C@]12Cc3cn4c(nc3C=C1CC[C@H]1[C@@H]2CC[C@@]2(C)[C@H]1CC[C@@]2(O)C#N)nc1ccccc14 | inconclusive: 12.6 µM [inhibitor, single point] | 
15 | C=C[C@@H]1C[C@@]1(C)[C@@H](NP(=O)(c1ccccc1)c1ccccc1)c1ccccc1 | inactive | 
16 | COC(=O)c1c(N)n(Cc2ccc(OC)cc2)c2nc3ccccc3nc12 | inconclusive: 15.8 µM [fluorescent, side channel, partial curve] | 
17 | N=C(N)c1ccc(-c2ccc(-c3ccc(C(=N)N)cc3)o2)cc1 | inconclusive: 3.98 µM [fluorescent, side channel, partial curve] | 
18 | CCOC(=O)c1c(N)n(Cc2ccccc2)c2nc3ccccc3nc12 | inconclusive: 15.8 µM [fluorescent, partial curve] | 
19 | COCCOC(=O)c1c(N)n(Cc2ccccc2)c2nc3ccccc3nc12 | inconclusive: 15.8 µM [fluorescent, partial curve] | 
20 | N#CCBr | inactive | 

Row | Structure (SMILES) | Potency | activity change, negative = inhibition
21 | COCCCn1c(N)c(C(=O)OCCOC)c2nc3ccccc3nc21 | inconclusive: 15.8 µM [fluorescent, side channel, partial curve] | 
22 | Cc1cc2c(C(F)(F)F)cc(=O)oc2c2c1NCCC2 | inconclusive: 0.501 µM [fluorescent, side channel, full curve] | 
23 | CCOC(=O)c1c(N)n(CCN2CCCCC2)c2nc3ccccc3nc12 | inconclusive: 7.94 µM [fluorescent, partial curve] | 
24 | Cc1nn(-c2ccccc2)c2c1P(=O)(O)/C(=C1\N(C)c3ccccc3C1(C)C)C=N2 | inconclusive: 15.8 µM [fluorescent, partial curve] | 
25 | CC(C)CCn1c(N)c(C(=O)OCC2CCCO2)c2nc3ccccc3nc21 (stereo not given) | inconclusive: 12.6 µM [fluorescent, side channel, partial curve] | 
26 | CC(C)[C@]1(NC(=O)[C@@H]2C=C3c4cccc5[nH]cc(c45)C[C@H]3N(C)C2)O[C@@]2(O)C3CCCN3C(=O)[C@H](Cc3ccccc3)N2C1=O (stereo not given in full) | inconclusive: 25.1 µM [fluorescent, partial curve] | 
27 | CC[n+]1c(-c2ccccc2)c2cc(N)ccc2c2ccc(N)cc21 | inconclusive: 6.31 µM [fluorescent, side channel, partial curve] | 
28 | CCNC(=O)[C@@H]1O[C@@H](n2cnc3c(N)ncnc32)[C@H](O)[C@H]1O | inactive | 
29 | CN1CCc2cc3c(cc2C1O)OCO3 (stereo not given) | inconclusive: 7.94 µM [fluorescent, side channel, partial curve] | 
30 | C[C@H](CCC(=O)O)[C@H]1CC[C@H]2[C@@H]3CC[C@@H]4C[C@H](O)CC[C@]4(C)[C@H]3CC[C@]12C | inconclusive: 12.6 µM [inhibitor, full curve] | 
31 | NCCc1c[nH]c2ccc(OC(=O)C(=O)O)cc12 |  | inactive: 1.22% [at 11.5 µM]
32 | CCOC(=O)Nc1ccc(NCc2ccc(F)cc2)nc1N | inconclusive: 10 µM [fluorescent, full curve] | 
33 | Nc1c(C(=O)OCC2CCCO2)c2nc3ccccc3nc2n1Cc1cccs1 (stereo not given) | inconclusive: 15.8 µM [fluorescent, side channel, partial curve] | 
34 | CCn1nc(-c2cccs2)nc2c(=O)n(C)c(=O)nc1-2 | inconclusive: 1.58 µM [inhibitor, full curve] | 
35 | CCCCCn1c(N)c(C(=O)NCCN2CCOCC2)c2nc3ccccc3nc21 | inconclusive: 15.8 µM [fluorescent, side channel, partial curve] | 
36 | Nc1nc(N)c2nc(CNc3ccc(C(=O)N[C@H](CCC(=O)O)C(=O)O)cc3)cnc2n1 | inconclusive: 12.6 µM [inhibitor, partial curve] | 
37 | Cc1ccc(N2C(=O)NC(=O)C3(Cc4ccccc4N4CCN(c5ccccc5)CC43)C2=O)cc1 (stereo not given) | inconclusive: 31.6 µM [inhibitor, single point] | 
38 | C[C@@]12CCC3C(CCC4=CC(=O)CC[C@]43C)C1CCC2O (stereo not given in full) | inactive | 
39 | CN1CCCC2(CCN(C(=O)c3ccncc3)CC2)C1 | inactive | 
40 | Cc1ccc2c(c1)C1CN(C)CCC1N2S(=O)(=O)c1ccccc1 (stereo not given) | inactive | 

Row | Structure (SMILES) | Potency | activity change, negative = inhibition
41 | CCCNC(=O)c1c(N)n(CC2CCCO2)c2nc3ccccc3nc12 (stereo not given) | inconclusive: 10 µM [fluorescent, side channel, partial curve] | 
42 | CC1(C)CN=C(NCc2ccccc2Cl)S1 | inactive | 
43 | O=C(CSc1ccccc1)N1CCC2(CC1)OCCO2 | inconclusive: 7.94 µM [fluorescent, side channel, partial curve] | 
44 | Cc1cc2c(C(C)C)c(O)c(O)c(C=O)c2c(O)c1-c1c(C)cc2c(C(C)C)c(O)c(O)c(C=O)c2c1O | inconclusive: 20 µM [inhibitor, partial curve] | 
45 | CC1/C=C/C=C/CC/C=C/C=C/C=C/C=C/C(OC2OC(C)C(O)C(N)C2O)CC2O[C@](O)(CC(O)C(O)CCC(O)CC(O)CC(O)CC(=O)OC(C)C(C)C1O)CC(O)C2C(=O)O (stereo not given in full) | inactive | 
46 | C[C@@H](CO)NC(=O)[C@@H]1C=C2c3cccc4[nH]cc(c34)C[C@H]2N(C)C1 | inconclusive: 31.6 µM [fluorescent, partial curve] | 
47 | ClC1=C(Cl)C2(Cl)C3C4C=CC(C4)C3C1(Cl)C2(Cl)Cl (stereo not given) | inactive | 
48 | CC(=O)Oc1c2c(c(CC=C(C)C)c3c1C(=O)C1=CC4CC5C(C)(C)OC(C/C=C(\C)C(=O)O)(C4=O)[C@]15O3)OC(C)(CCC=C(C)C)C=C2 (stereo not given in full) | inconclusive: 20 µM [inhibitor, single point] | 
49 | Cc1[nH]ccc2c1[nH]c1cc(=O)ccc12 | inconclusive: 15.8 µM [fluorescent, side channel, partial curve] | 
50 | Cc1c2ccncc2c(C)c2c1[nH]c1ccccc12 | inconclusive: 12.6 µM [inhibitor, partial curve] | 
51 | CC12CCC(=O)C=C1CCC1C2CCC2(C)C(O)CCC12 (stereo not given) | inactive | 
52 | O=C1NC(=O)C2(Cc3ccccc3N3CCCC32)C(=O)N1c1ccc(Cl)cc1 (stereo not given) | inconclusive: 31.6 µM [inhibitor, single point] | 
53 | COc1cc(=O)[nH]c(SCc2c(F)c(F)c(F)c(F)c2F)n1 | inconclusive: 31.6 µM [inhibitor, single point] | 
54 | N#Cc1ccccc1Cn1cc(C(=O)C2CC2)c2ccccc21 | inactive | 
55 | COc1cc2c(cc1-c1cc3cc4ccoc4cc3oc1=O)OCO2 | inconclusive: 20 µM [inhibitor, partial curve] | 
56 | Cc1nc2cnc(N3CCNCC3)nc2n(C)c1=O | inconclusive: 25.1 µM [inhibitor, partial curve] | 
57 | O=C1NC(=O)C2(Cc3ccccc3N3CCCC32)C(=O)N1c1cccc(Cl)c1 (stereo not given) | inconclusive: 31.6 µM [inhibitor, single point] | 
58 | CC[C@@]1(O)C(=O)OCc2c1cc1n(c2=O)Cc2cc3cc(O)ccc3nc2-1 | inconclusive: 15.8 µM [fluorescent, side channel, partial curve] | 
59 | COCCOC(=O)c1c(N)n(Cc2ccc(OC)cc2)c2nc3ccccc3nc12 | inconclusive: 15.8 µM [fluorescent, partial curve] | 
60 | CC(=O)C1=C(O)[C@@H]2[C@@H]3c4c[nH]c5cccc(c45)C[C@@H]3C(C)(C)N2C1=O | inactive | 
